Reference: article PMC12796746
No constants are given. Whether binding was seen depends on the method and setting. Some entries that bind do so weakly or less than the wild type. For part of these data: Tags and fused reporters may be left off the sequences shown.

Amino acid sequences for entries named in this document (tags omitted).
UniProt P61586: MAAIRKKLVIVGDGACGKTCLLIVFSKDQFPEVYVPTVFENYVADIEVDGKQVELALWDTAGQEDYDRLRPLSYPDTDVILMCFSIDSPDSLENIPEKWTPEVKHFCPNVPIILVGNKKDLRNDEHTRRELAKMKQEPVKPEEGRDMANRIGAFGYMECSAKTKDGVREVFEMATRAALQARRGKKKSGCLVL

Key:
Assay in all cases: peptide or protein array; HuProt Human Proteome Microarray v2.0, full-length human proteins spotted in duplicate; V5-tagged TRPV4 protein in solution at 1 μM, 1 h at 4 °C, 150 mM NaCl, 2.7 mM KCl, 25 mM Trizma base, 0.05% Tween-20, pH 7.4; detected with Alexa Fluor 647 anti-V5; hit: z-score >= 2 (N terminus: both of 2 slides; ARD constructs: at least 2 of 3 slides); both purified
[1] = molecular target: T1, LOC554174 protein (human) (UniProt Q96GL5)
T1 sequence: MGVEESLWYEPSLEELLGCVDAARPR

[2] = molecular target: RhoA (on the HuProt array) (human) (UniProt P61586)
[3] = molecular target: T2, Synaptotagmin-like protein 2 (human) (UniProt Q9HCH5)
T2 sequence: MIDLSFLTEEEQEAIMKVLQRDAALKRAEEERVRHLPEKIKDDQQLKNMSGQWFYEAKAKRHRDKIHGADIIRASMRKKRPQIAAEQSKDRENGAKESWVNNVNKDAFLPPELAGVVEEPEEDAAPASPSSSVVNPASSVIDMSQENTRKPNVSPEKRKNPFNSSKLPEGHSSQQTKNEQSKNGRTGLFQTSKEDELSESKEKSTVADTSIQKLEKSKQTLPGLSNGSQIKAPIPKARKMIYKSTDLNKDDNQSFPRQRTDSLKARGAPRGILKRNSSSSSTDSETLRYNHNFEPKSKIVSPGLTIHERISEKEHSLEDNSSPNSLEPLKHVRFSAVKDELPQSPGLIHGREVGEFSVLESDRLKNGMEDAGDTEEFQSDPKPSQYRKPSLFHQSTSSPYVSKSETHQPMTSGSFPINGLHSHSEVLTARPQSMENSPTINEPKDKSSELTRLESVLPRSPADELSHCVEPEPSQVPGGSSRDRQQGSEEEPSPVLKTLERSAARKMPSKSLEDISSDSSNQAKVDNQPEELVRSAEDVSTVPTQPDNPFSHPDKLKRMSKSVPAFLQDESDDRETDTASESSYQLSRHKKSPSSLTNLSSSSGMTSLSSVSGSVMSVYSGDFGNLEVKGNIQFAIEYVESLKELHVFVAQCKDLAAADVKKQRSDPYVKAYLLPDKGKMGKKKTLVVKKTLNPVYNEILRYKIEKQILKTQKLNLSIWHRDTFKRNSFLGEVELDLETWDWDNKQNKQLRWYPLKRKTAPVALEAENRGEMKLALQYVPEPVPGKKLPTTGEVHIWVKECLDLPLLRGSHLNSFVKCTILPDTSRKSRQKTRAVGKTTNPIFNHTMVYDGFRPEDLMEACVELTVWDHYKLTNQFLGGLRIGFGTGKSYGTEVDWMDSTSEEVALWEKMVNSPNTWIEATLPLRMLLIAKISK

TRPV4^WT-ARD (amino acids 149-397) (from UniProt Q9HBA0 149-397) (domain or fragment)
binding [1]: binds
binding [2]: no binding (tested: 1 μM)
binding [3]: binds
